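Interpolation was linear, between the two tested concentrations surrounding the appropriate level; five concentrations were tested over 48 hours in 96-well plates. GI50 marks 50% less growth. TGI denotes the concentration required for complete inhibition of growth.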 Some results are limits rather than exact numbers.

The test system of this assay is NCI-H322M lung. In words: growth of human tumour cells (NCI), 48 h.
As to `COc1cc2c3c(n(CCCNCCO)c(=O)c2cc1OC)-c1nc2c(cc1C3=O)OCO2`, the GI50 is 3.95 µM and the TGI is 17.3 µM.
Consider `O=C(c1ccc(Cl)cc1)C1[C@H](c2ccccc2Br)[C@@H](c2ccccc2)NC12C(=O)Nc1ccc(Br)cc12` (stereo partly specified), for which the GI50 is 12.7 µM and the TGI was more than 49 µM.
On to `OCCNc1oc(-c2ccccc2)nc1[P+](c1ccccc1)(c1ccccc1)c1ccccc1`, for which the GI50 was 14.9 µM and the TGI came out at 44.4 µM.
